In PubChem BioAssay AID2147 (National Center for Advancing Translational Sciences (NCATS), 2009):
The campaign covered roughly 230,000 compounds. About 3,600 (1.6%) were called active. Inconclusive means that the source gave no clear call. Such entries were picked first, then a sample of the others. Calls come from the whole dose curve; as a rule, active = well fitted inhibition curve with a large enough effect (not every such curve was filed as active); inconclusive = small, poorly fitted or top-dose-only effect, or another doubt; inactive = no such curve, though single readings can be large or run the other way. Where the call is inconclusive, the potency comes from a doubtful curve fit.

target: Lysine-specific demethylase 4E (Homo sapiens) (UniProt B2RXH2); assay: qHTS Assay for Inhibitors of Human Jumonji Domain Containing 2E (JMJD2E); settings: JMJD2E catalytic domain, FDH-coupled NADH fluorescence (FDH is formaldehyde dehydrogenase); series mostly up to 57.1 µM; activity change, negative = inhibition: at the top concentration
UniProt B2RXH2, sequence (B2RXH2 whole entry, looked up, the tested form may be a part): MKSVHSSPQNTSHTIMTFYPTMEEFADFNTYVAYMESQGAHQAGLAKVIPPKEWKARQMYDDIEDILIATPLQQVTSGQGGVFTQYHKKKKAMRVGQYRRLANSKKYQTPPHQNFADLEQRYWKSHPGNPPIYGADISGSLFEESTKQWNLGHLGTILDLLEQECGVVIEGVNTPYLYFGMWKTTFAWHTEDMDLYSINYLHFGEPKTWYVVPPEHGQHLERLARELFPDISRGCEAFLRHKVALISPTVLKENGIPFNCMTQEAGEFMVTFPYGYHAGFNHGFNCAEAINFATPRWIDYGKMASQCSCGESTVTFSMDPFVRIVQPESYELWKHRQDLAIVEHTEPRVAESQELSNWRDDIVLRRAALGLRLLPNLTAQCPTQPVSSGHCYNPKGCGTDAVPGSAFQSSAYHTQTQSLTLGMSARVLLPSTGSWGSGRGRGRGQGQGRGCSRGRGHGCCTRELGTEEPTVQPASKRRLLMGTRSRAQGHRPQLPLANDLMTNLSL
Note: nearly all actives have a fitted effect of over 50% in size.
Potency is the fitted concentration of half-maximal effect; tags give direction and shape of the fitted curve.
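Throughout, for activity change, negative = inhibition: 0% = wells with enzyme and -100% = buffer wells without enzyme.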

SMILES	activity change, negative = inhibition	Potency
CCCN(CCC)S(=O)(=O)c1cccc(C(=O)Nc2ccc3c(c2)OCO3)c1	inactive: 6.12%	
COc1[nH]c(/N=C/c2ccccc2)c(C#N)c1C#N		inconclusive: 39.8 µM [inhibitor, single point]
CCC(=O)OC1(C)C(=O)C=C2C=C(c3ccc(C#N)cc3)OC=C2C1=O (stereo not given)	inactive: -5.92%	
Cc1ccc(S(=O)(=O)CCC(=O)OCc2ccc(Cl)c(Cl)c2)cc1	inactive: 3.58%	
CN[C@H](CC(=O)O)C(=O)O		inconclusive: 25.1 µM [inhibitor, single point]
Cc1oc2c(c1C(=O)c1ccccc1)C(=O)C(=O)c1ccccc1-2		inconclusive: 3.16 µM [inhibitor, partial curve]
Cc1nonc1CN(C)C(=O)CC1C(=O)NCCN1Cc1ccccc1C(F)(F)F (stereo not given)	inactive: -19.8%	
N#CC1=C(N)N2C(=C(C#N)C13CCN(Cc1ccccc1)CC3)Nc1ccccc12		inconclusive: 35.5 µM [inhibitor, single point]
c1ccc2[nH]c(CSc3nnc(-c4ccncc4)o3)nc2c1		inconclusive: 25.1 µM [inhibitor, partial curve]
CN1CCN(c2oc(-c3cccs3)nc2S(=O)(=O)c2ccccc2)CC1		inconclusive: 39.8 µM [inhibitor, single point]
Oc1ccc(-c2nc(-c3ccc(O)c(O)c3)cs2)cc1		active: 28.2 µM
CCOc1ccccc1C1C(C(=O)OC)=CN(C)C=C1C(=O)OC		inconclusive: 25.1 µM [inhibitor, partial curve]
CC(=O)Nc1ccc2c(c1)ncn2C	inactive: 7.72%	
Cn1c2c(c(=O)n(C)c1=O)C(c1ccccc1Cl)C(C#N)=C(N)O2 (stereo not given)	inactive: -4.09%	
NNc1nc(-c2ccccc2)cc(-c2ccccc2O)n1	inactive: -25.9%	
Cc1ccccc1-c1nnc2s/c(=C\c3ccc(N(C)C)cc3)c(=O)n12		inconclusive: 39.8 µM [inhibitor, single point]
CCOc1cc(/C=C/c2nc3ccccc3s2)ccc1OCC(=O)N1CCOCC1		inconclusive: 28.2 µM [inhibitor, partial curve]
COc1ccc(-c2cc3nc(C)n(N)c(=O)c3s2)cc1		inconclusive: 12.6 µM [inhibitor, partial curve]
CCCC(=O)Nc1sc2c(c1C(=O)Nc1ccccn1)CCCC2		inconclusive: 39.8 µM [inhibitor, single point]
CCOc1ccccc1NC(=S)/C(=C(\[O-])c1ccc2c(c1)OCCO2)[n+]1ccc(CC)cc1		inconclusive: 28.2 µM [inhibitor, single point]
COc1ccccc1N1CCN(C(=O)CSc2nc(-c3ccco3)cc(C(F)(F)F)n2)CC1	inactive: -24.1%	
CCOCCCNC(=O)c1c[nH]c2ccc(OCC)cc2c1=O		inconclusive: 39.8 µM [inhibitor, single point]
CCCCOc1ccc(/C=C/C(=O)NC2=Nc3ccccc3NC(C)=C2C(=O)OCC)cc1OC		inconclusive: 35.5 µM [inhibitor, partial curve]
CCOC(=O)c1ccc(N2C(=O)c3n[nH]c(C)c3C2c2ccc(OC)cc2OC)cc1 (stereo not given)		inconclusive: 35.5 µM [inhibitor, single point]

SMILES	activity change, negative = inhibition	Potency
CCN(CC)CC(=O)Nc1c(C)cc(C(C)(C)C)cc1C	inactive: 2.4%	
O=C(NCc1ccco1)c1ccccc1NS(=O)(=O)c1ccc(Br)s1	inactive: -1.41%	
CCOC(=O)c1sc(=S)sc1SCc1cccc(C(F)(F)F)c1	inactive: -4.04%	
Cc1cc(=O)oc2cc(NC(=O)C3CCCC3)ccc12		inconclusive: 28.2 µM [inhibitor, partial curve]
Oc1ccc(/C=N/Nc2nn3cnnc3c3ccccc23)cc1	inactive: -17.6%	
Cc1ccccc1-c1cccc([C@@H]2C[C@H]3CN(Cc4cccnc4)C(=O)[C@]34CCCN24)c1	inactive: -8.47%	
Cc1nn(C)c(C)c1C1Nc2ccccc2C(=O)N1O (stereo not given)		inconclusive: 25.1 µM [inhibitor, partial curve]
COc1ccc(-n2nc(C(=O)NCC(=O)NCc3ccccc3OC)c3ccccc3c2=O)c(OC)c1		inconclusive: 39.8 µM [inhibitor, single point]
O=C(/C=C/c1cccnc1)c1ccccc1O		inconclusive: 39.8 µM [inhibitor, single point]
CCOc1ccc(C2C(C(=O)c3cccs3)=C(O)C(=O)N2Cc2cccnc2)cc1OC (stereo not given)		inconclusive: 39.8 µM [inhibitor, single point]
CCCCn1nc2cc(C(=O)NCC34CC5CC(CC(C5)C3)C4)ccc2c1OCC		inconclusive: 28.2 µM [inhibitor, partial curve]
Cc1ccc(S(=O)(=O)CCC(=O)OCC(=O)Nc2ncc(Cl)cc2Cl)cc1		inconclusive: 25.1 µM [inhibitor, partial curve]
c1ccc(Cn2c(CSc3nnnn3-c3ccccc3)nc3ccccc32)cc1		inconclusive: 39.8 µM [inhibitor, single point]
Cc1cc(-n2c(C)cc(C(=O)CN3C(=O)NC4(CCCC4)C3=O)c2C)no1	inactive: 2.66%	
O=C(CCN1CCN(c2ccccc2)CC1)N/N=C/c1ccc([N+](=O)[O-])o1		inconclusive: 15.8 µM [inhibitor, partial curve]
COc1ccc(Cl)cc1NC(=O)Nc1ccccc1C(N)=O		inconclusive: 25.1 µM [inhibitor, single point]
COc1ccc(C(=O)N/N=C/c2ccc(OC)c(CN3CCc4cc(OC)c(OC)cc4C3C)c2)cc1 (stereo not given)		inconclusive: 25.1 µM [inhibitor, single point]
CCOc1cc(C=O)cc(Br)c1OCC(N)=O	inactive: 1.8%	
CN(C(=O)COC(=O)c1ccc(Cl)c(N)c1)c1ccccc1		inconclusive: 35.5 µM [inhibitor, partial curve]
COc1ccc(CNC(=O)Cn2ncn3cccc3c2=O)cc1	inactive: -5.97%	
CN(C)c1ccc(N=C/C=C2/N(C)c3ccccc3C2(C)C)cc1		inconclusive: 39.8 µM [inhibitor, single point]
C=CCNC(=O)/C(C#N)=C/c1cn(-c2ccccc2)nc1-c1cccs1		inconclusive: 31.6 µM [inhibitor, single point]
CCO/C=C1/C(=O)N(C)C(=O)c2cc(OC)ccc21	inactive: -29.9%	
O=C(/C=C/c1ccc(-c2ccccc2[N+](=O)[O-])o1)c1ccc(Br)cc1	inactive: -18.4%	

SMILES	activity change, negative = inhibition	Potency
CC(C)c1cc(N2CCN(C(=O)c3ccco3)CC2)n2c(nc3ccccc32)c1C#N		inconclusive: 28.2 µM [inhibitor, partial curve]
COc1ccc(S(=O)(=O)n2ccnc2)c2cccnc12		inconclusive: 28.2 µM [inhibitor, partial curve]
COc1ccc(-c2nn3c(COc4ccccc4)nnc3s2)cc1OC		inconclusive: 39.8 µM [inhibitor, single point]
CCC(C(=O)O)n1nnc(-c2ccc(-c3ccc(OC)cc3)cc2)n1 (stereo not given)		inconclusive: 31.6 µM [inhibitor, single point]
Nc1ccc(C(=O)OCc2csc(-c3ccccc3)n2)cc1[N+](=O)[O-]		inconclusive: 35.5 µM [inhibitor, single point]
O=S(=O)(N/N=C\c1ccc2c(c1)OCO2)c1ccc(Cl)cc1	inactive: 9.79%	
CCOC(=O)c1cc(-c2ccc(Cl)cc2)nc2c1c(C)nn2CCC#N		inconclusive: 31.6 µM [inhibitor, partial curve]
CCOC(=O)c1c(NC(=S)Nc2ccccc2)sc2c1CCN(CCc1ccccc1)C2		inconclusive: 39.8 µM [inhibitor, single point]
COc1ccc2c(c1)CC1c3c(cc4c(c3-2)OCO4)CC[N+]1(C)[O-] (stereo not given)		inconclusive: 35.5 µM [inhibitor, single point]
Cc1cc(C)c2c(n1)nn1c(NCCCn3ccnc3)cc(C)nc21		inconclusive: 28.2 µM [inhibitor, partial curve]
Cn1c(-n2c(CCN3C(=O)c4ccccc4C3=O)nc3ccccc3c2=O)nc2ccccc21		inconclusive: 39.8 µM [inhibitor, single point]
COc1cc2[nH]c(=S)nc(NCCCOC(C)C)c2cc1OC		inconclusive: 39.8 µM [inhibitor, single point]
COc1ccc(C(=O)N/C(N)=N/c2nc3ccccc3o2)cc1		inconclusive: 31.6 µM [inhibitor, partial curve]
CNc1oc(-c2ccc(Cl)cc2)nc1P(=O)(c1ccccc1)c1ccccc1		inconclusive: 8.91 µM [inhibitor, full curve]
CC(C)CN(C(=O)CSc1nnc2ccccn12)c1c(N)n(CC(C)C)c(=O)[nH]c1=O		inconclusive: 28.2 µM [inhibitor, single point]
Cc1noc(C)c1CSc1nc2ccccc2c(=O)n1-c1ccc(Cl)cc1	inactive: -10.3%	
O=C(/C=C/c1ccc(O)cc1)c1ccccc1O		inconclusive: 39.8 µM [inhibitor, single point]
CCOC(=O)c1[nH]c2ccccc2c1NC(=S)Nc1ccccc1C		inconclusive: 31.6 µM [inhibitor, partial curve]
Cc1nn(-c2ccccc2)c2sc(C(=O)O)cc12		inconclusive: 39.8 µM [inhibitor, single point]
Cc1ccc(Cn2c(N)c(S(=O)(=O)c3cccs3)c3nc4ccccc4nc32)cc1		inconclusive: 14.1 µM [inhibitor, partial curve]
COc1cc2c(C(=O)OCCN(C)C)c(CSc3ccccc3)n(C)c2cc1Br	inactive: 2.67%	
O=C(N/N=C/c1ccc(O)cc1)Nc1cccc2nsnc12	inactive: -13.6%	
